Among all 220,000 compounds or so, about 16,000 (7.3%) were called active. Inconclusive means that the source gave no clear call. Such entries were picked first, then a sample of the others. The call rests on the fitted dose curve; in most records, active means well fitted inhibition curve with a large enough effect (not every such curve was filed as active); inconclusive means small, poorly fitted or top-dose-only effect, or another doubt; inactive means no such curve, though single readings can be large or run the other way. No potency is given beside an inconclusive call; the fits are too rough.
The compounds below were run against Aldehyde dehydrogenase 1A1 (Homo sapiens) (UniProt P00352) (assay: qHTS Assay for Inhibitors of Aldehyde Dehydrogenase 1 (ALDH1A1)). Conditions: Purified ALDH1A1, NADH fluorescence, propionaldehyde substrate; series mostly up to 75.3 µM; activity, negative = inhibition: at the top concentration.
Potency means the concentration at half of the fitted maximal effect; tags describe the fitted curve by direction and shape.
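Wherever activity, negative = inhibition is given: plate controls were no enzyme wells and a reference inhibitor.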

Sequence of UniProt P00352 (P00352 whole entry, looked up): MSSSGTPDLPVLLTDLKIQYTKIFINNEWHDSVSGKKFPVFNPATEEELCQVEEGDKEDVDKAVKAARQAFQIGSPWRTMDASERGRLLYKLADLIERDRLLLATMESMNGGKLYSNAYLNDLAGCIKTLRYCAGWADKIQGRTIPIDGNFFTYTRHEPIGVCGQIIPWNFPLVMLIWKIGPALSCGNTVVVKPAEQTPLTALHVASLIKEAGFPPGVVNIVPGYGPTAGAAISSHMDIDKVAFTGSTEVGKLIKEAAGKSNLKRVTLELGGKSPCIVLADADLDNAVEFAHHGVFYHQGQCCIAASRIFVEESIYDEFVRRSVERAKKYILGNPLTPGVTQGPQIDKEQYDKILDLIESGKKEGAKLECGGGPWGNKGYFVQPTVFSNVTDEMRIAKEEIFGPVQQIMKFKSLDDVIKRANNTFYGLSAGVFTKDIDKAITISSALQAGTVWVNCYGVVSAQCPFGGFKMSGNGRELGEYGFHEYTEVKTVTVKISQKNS

Question: How did the “activity, negative = inhibition” value turn out when COc1cccc(/C=C(/C(=O)OCC(N)=O)c2ccccc2)c1 was run?
Answer: inactive: 9.67%

Question: COc1ccc(NC(=S)Nc2ccc(N)c([N+](=O)[O-])c2)cc1 was tested. Which Potency did it give?
Answer: active: 25.1 µM

Question: How did the Potency turn out when COC(=O)c1cn(C(=O)c2cccs2)c2ccccc12 was run?
Answer: inconclusive [inhibitor, single point]

Question: Which Potency does the source give for O=C(c1csnn1)N1CCC2(CCCN(c3ccccc3)C2)CC1 here?
Answer: inconclusive [inhibitor, partial curve]

Question: How did the “activity, negative = inhibition” value turn out when Cc1cc([N+](=O)[O-])cc2c1NC(c1ccccn1)C1CC=CC21 (stereo not given) was run?
Answer: inactive: -4.45%

Question: With O=[N+]([O-])c1cc2c(c(CSc3nnc4ccccn34)c1)OCOC2 as the compound, how does the Potency read?
Answer: inconclusive [inhibitor, single point]

Question: Which “activity, negative = inhibition” value does the source give for Cn1nccc1C(=O)N1CCN(c2ccc(F)cc2)CC1 here?
Answer: inactive: 0.456%

Question: Which “activity, negative = inhibition” value does the source give for COc1cc(CNC(C)C)c(Br)cc1OC1CCCC1 here?
Answer: inactive: -2.33%

Question: For CCOc1ccc(NS(=O)(=O)c2ccc(C)c(C(=O)O)c2)cc1, which “activity, negative = inhibition” value is on record?
Answer: inactive: 8.79%

Question: How did the “activity, negative = inhibition” value turn out when CNc1nc(-c2ccccc2Cl)nc2ccccc12 was run?
Answer: inactive: 0.347%

Question: For CCC(=O)N(CC)C1=C(O)c2ccccc2C(=O)C1=O, which Potency is on record?
Answer: active: 22.4 µM

Question: For Cc1cc(C(=O)CSc2ccc(F)cc2)cc(C)c1OC(=S)N(C)C, which Potency is on record?
Answer: inconclusive [inhibitor, single point]

Question: With CN(C)c1ccc(-c2nn3c(-c4ccccc4Cl)nnc3s2)cc1 as the compound, how does the Potency read?
Answer: inconclusive [inhibitor, partial curve]

Question: With O=c1[nH]c(-c2ccccc2O)nc2c1CCCC2 as the compound, how does the Potency read?
Answer: inconclusive [inhibitor, single point]

Question: With O=C(O)c1cn[nH]c1-n1cnnn1 as the compound, how does the “activity, negative = inhibition” value read?
Answer: inactive: 4.91%

Question: How did the Potency turn out when NS(=O)(=O)c1cccnc1Nc1cccc(Cl)c1Cl was run?
Answer: inconclusive [inhibitor, single point]

Question: Cc1ccc(NC(=O)NC(=O)N(C2CCCCC2)S(=O)(=O)c2ccccc2)cc1 was tested. Which Potency did it give?
Answer: inconclusive [inhibitor, partial curve]

Question: CCCOc1ccc([N+](=O)[O-])c(N)c1 was tested. Which “activity, negative = inhibition” value did it give?
Answer: inactive: -2.15%

Question: COc1ccccc1-c1ccc(SCC(=O)NCc2ccc3c(c2)OCO3)nn1 was tested. Which Potency did it give?
Answer: inconclusive [inhibitor, single point]

Question: For CCOc1ccc(N2C(=O)C(CC(=O)Nc3ccccc3)N(Cc3ccccn3)C2=S)cc1 (stereo not given), which Potency is on record?
Answer: inconclusive [inhibitor, single point]

Question: Cc1ccc(OCc2nc(C#N)c(N3CCCCC3)o2)cc1 was tested. Which Potency did it give?
Answer: inconclusive [inhibitor, single point]

Question: For O=c1cc(-c2ccccc2[N+](=O)[O-])oc2ccccc12, which Potency is on record?
Answer: inconclusive [inhibitor, single point]

Question: CC(=O)Nc1cc(C(=O)N2CCCC2)ccc1Sc1ccc(C)cc1 was tested. Which Potency did it give?
Answer: inconclusive [inhibitor, single point]

Question: For Cc1cccc2cc(C(c3nnnn3CC3CCCO3)N3CCc4ccccc4C3)c(=O)[nH]c12 (stereo not given), which Potency is on record?
Answer: active: 12.6 µM

Question: COc1cccc(C2C=C(c3ccc(Br)s3)Nc3ncnn32)c1OC (stereo not given) was tested. Which Potency did it give?
Answer: inconclusive [inhibitor, single point]

Question: With COc1cccc(/C=N/NC(=O)c2ccc(N(C)S(=O)(=O)c3ccccc3)cc2)c1OC as the compound, how does the Potency read?
Answer: inconclusive [inhibitor, partial curve, poor fit]

Question: How did the Potency turn out when Cn1nc(C(=O)NC2CCCCC2)c2ccccc2c1=O was run?
Answer: inconclusive [inhibitor, partial curve]

Question: O=C(/C=C/c1cccs1)N1CCCCC1 was tested. Which Potency did it give?
Answer: inconclusive [inhibitor, single point]

Question: With Cc1ccc(/C=c2\sc3n(c2=O)CN(c2ccc(Br)cc2)CN=3)o1 as the compound, how does the Potency read?
Answer: active: 14.1 µM

Question: With CC1=NC(=O)C(N=Nc2cccc(C(=O)O)c2)N1c1ccccc1 (stereo not given) as the compound, how does the Potency read?
Answer: inconclusive [inhibitor, single point]

Question: Which “activity, negative = inhibition” value does the source give for CCOC(=O)c1[nH]c(C)c(C(=O)OCC(=O)N2CCc3ccccc32)c1C here?
Answer: inactive: -1.37%

Question: Which Potency does the source give for COC(=O)Cn1c(=NC(=O)c2cc(-c3cccs3)nc3ccccc23)sc2cc(S(N)(=O)=O)ccc21 here?
Answer: inconclusive [inhibitor, single point]

Question: For COc1cccc(CNC(=O)CCC2CCCN(C(=O)c3ccc(OC)o3)C2)c1 (stereo not given), which Potency is on record?
Answer: active: 7.94 µM

Question: Which Potency does the source give for O=C(CN(C1CCCCC1)S(=O)(=O)c1ccc(Br)cc1)NCc1cccnc1 here?
Answer: inconclusive [inhibitor, single point]

Question: Which Potency does the source give for COCCCNCC#CCOc1ccc(OC)cc1 here?
Answer: active: 8.91 µM

Question: Which Potency does the source give for O=C(/C=C/c1cccs1)c1cc(Br)ccc1OC(=O)N1CCOCC1 here?
Answer: inconclusive [inhibitor, single point]

Question: CC(C)n1cc(C(=O)c2ccccc2O)cc(C#N)c1=O was tested. Which “activity, negative = inhibition” value did it give?
Answer: inactive: -10.9%

Question: For COc1ccccc1NC(=O)CC(c1ccc(OC(C)C)cc1)c1ccccc1OC (stereo not given), which Potency is on record?
Answer: inconclusive [inhibitor, full curve]

Question: COc1ccc(S(=O)(=O)N(C)C)cc1NC(=O)CSc1nc(N)cc(N)n1 was tested. Which “activity, negative = inhibition” value did it give?
Answer: inactive: -10.1%

Question: Which Potency does the source give for COc1ccc(-c2cc(-c3ccccc3)nc3ncnn23)cc1 here?
Answer: inconclusive [inhibitor, partial curve]

Question: How did the Potency turn out when Cc1nc(NCc2cccnc2)c2c3c(sc2n1)CC(C)CC3 (stereo not given) was run?
Answer: inconclusive [inhibitor, partial curve, poor fit]

Question: With O=C(CN1CCN(c2cccc(C(F)(F)F)c2)CC1)Nc1cccc(C(F)(F)F)c1 as the compound, how does the Potency read?
Answer: inconclusive [inhibitor, single point]

Question: With CCOC(=O)C1CCCN(C(=O)COC(=O)C2=COCCO2)C1 (stereo not given) as the compound, how does the Potency read?
Answer: inconclusive [inhibitor, single point]

Question: With COc1ccc(NS(=O)(=O)c2ccc(NC(=S)NC(=O)c3ccc(F)cc3)cc2)nn1 as the compound, how does the Potency read?
Answer: inconclusive [inhibitor, single point]

Question: Fc1ccc(-c2nc(-c3cnccn3)no2)c(Cl)c1 was tested. Which “activity, negative = inhibition” value did it give?
Answer: inactive: 5.83%

Question: How did the “activity, negative = inhibition” value turn out when O=C(Nc1ccccc1)c1ccc(-c2ccccc2Cl)o1 was run?
Answer: inactive: -14.7%

Question: With O=C(Nc1cccc2ccccc12)N1CCN(c2ccc(F)cc2)CC1 as the compound, how does the “activity, negative = inhibition” value read?
Answer: inactive: -2.5%

Question: Cc1cccc(Nc2nc(-c3ccncc3)cs2)c1 was tested. Which “activity, negative = inhibition” value did it give?
Answer: inactive: 4.07%

Question: How did the “activity, negative = inhibition” value turn out when COc1cccc(-c2ccc3ncnc(N(C)C)c3c2)c1 was run?
Answer: inactive: 29.2%

Question: Which Potency does the source give for CC(C)Oc1cccc(C(=O)NC(=S)Nc2cccc(NC(=O)c3ccccc3Cl)c2)c1 here?
Answer: active: 11.2 µM

Question: With CCOC(=O)N1CCN(c2ccc([N+](=O)[O-])cc2)CC1 as the compound, how does the Potency read?
Answer: inconclusive [inhibitor, partial curve]

Question: For CCOc1c(Br)cc(/C=C2\C(=O)N(CCC#N)N=C2C)cc1OC, which Potency is on record?
Answer: inconclusive [inhibitor, partial curve]

Question: N#C/C(=N\Nc1ccc(F)cc1)C(=N)N1CCCCCC1 was tested. Which Potency did it give?
Answer: inconclusive [inhibitor, partial curve, poor fit]

Question: How did the “activity, negative = inhibition” value turn out when COc1ccc2c(c1)O[C@@H](c1cccc(C(F)(F)F)c1)[C@H](OC(=O)Nc1ccc(C)c(Br)c1)C2=O was run?
Answer: inactive: 1.79%

Question: With CN(C(=S)NC(=O)CCCOc1ccc(Cl)cc1Cl)c1ccccc1 as the compound, how does the Potency read?
Answer: active: 17.8 µM

Question: How did the Potency turn out when CC(C)Cc1cc(C(=O)Nc2ccc(F)cc2F)no1 was run?
Answer: inconclusive [inhibitor, single point]

Question: For O=C(/C=C/c1ccc(Cl)cc1Cl)Nc1cccc(S(=O)(=O)NC2=NCCCCC2)c1, which Potency is on record?
Answer: inconclusive [inhibitor, single point]

Question: Which Potency does the source give for CC1(C)CC(=O)c2sc(NC(=O)C3CC3)nc2C1 here?
Answer: active: 11.2 µM

Question: For COCCSc1ccccc1C(=O)N1CCC(Cc2ccccc2)CC1, which “activity, negative = inhibition” value is on record?
Answer: inactive: 5.89%

Question: COc1ccccc1C(=O)NCCN1CCN(C(=O)c2ccccc2OC)CC1 was tested. Which Potency did it give?
Answer: inconclusive [inhibitor, single point]

Question: CC(C)OC(=O)c1c(NC(=O)c2cccs2)sc2c1CCCC2 was tested. Which Potency did it give?
Answer: inconclusive [inhibitor, partial curve]

Question: Which Potency does the source give for C=C(C)CNC(=S)N1CCN(C(c2ccccc2)c2ccccc2)CC1 here?
Answer: inconclusive [inhibitor, single point]

Question: For CCNc1nc(SC(C(C)=O)C(C)=O)nc(N(C)C)n1, which “activity, negative = inhibition” value is on record?
Answer: inactive: 13.5%

Question: CSc1ccccc1NC(=O)C(=O)c1c[nH]c2ccccc12 was tested. Which “activity, negative = inhibition” value did it give?
Answer: inactive: -1.08%

Question: How did the “activity, negative = inhibition” value turn out when CCN(c1cccc(C)c1)c1nc2ccsc2c(=O)s1 was run?
Answer: inactive: 27.8%

Question: How did the Potency turn out when O=c1oc2cc(N=Cc3ccc4c(c3)OCO4)ccc2c2ccccc12 was run?
Answer: inconclusive [inhibitor, single point]

Question: With O=c1[nH]c(=O)n(Cc2ccccc2)c2nc(-c3cccs3)n(CCO)c12 as the compound, how does the Potency read?
Answer: inconclusive [inhibitor, partial curve]

Question: With CCOc1ccccc1-n1nnnc1SCC(=O)NC(=O)NCc1ccco1 as the compound, how does the Potency read?
Answer: inconclusive [inhibitor, single point]

Question: How did the Potency turn out when CC(C)CC1=C/C(=C/c2ccc(-c3ccccc3)o2)C(=O)O1 was run?
Answer: inconclusive [inhibitor, partial curve]

Question: With Clc1ccc(CSc2nnc3c(n2)[nH]c2ccccc23)cc1 as the compound, how does the “activity, negative = inhibition” value read?
Answer: inactive: 7.53%

Question: How did the “activity, negative = inhibition” value turn out when O=C(CSc1nnc(-c2ccccc2O)o1)Oc1ccc(OCc2ccccc2)cc1 was run?
Answer: inactive: -6.23%

Question: Which Potency does the source give for O=C(CSc1ccc(Cl)cc1)N1CCN(c2c(Cl)cccc2[N+](=O)[O-])CC1 here?
Answer: inconclusive [inhibitor, single point]

Question: CO[C@H]1COC(=O)[C@@H](C)COC(=O)[C@H](C)NC(=O)C/C=C\[C@H]1C was tested. Which activity, negative = inhibition did it give?
Answer: inactive: 14.1% [at 13.5 µM]

Question: CC(CN1CCCCC1)OC(=O)C1c2ccccc2Oc2ccccc21 (stereo not given) was tested. Which Potency did it give?
Answer: inconclusive [inhibitor, single point]

Question: How did the Potency turn out when Cc1occc1-c1nnc(SCC(=O)N2c3ccccc3CCc3ccccc32)n1C was run?
Answer: inconclusive [inhibitor, single point]

Source: PubChem BioAssay AID1030 (National Center for Advancing Translational Sciences (NCATS), 2008)
